Drawing on the supplement of paper PMC4604168 (melanoma cell lines), this text covers cell count for five compounds.

Among the test systems are 501Mel; A101D; A2058; A375.
What all share (test): cell count relative to DMSO control; melanoma cells; higher = more viable cells
Conditions in all cases: library dose: standard library concentration; 72 h

Some of the results follow. Single values are uncertain, as repeats are few or missing.
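Further: cells treated in 1,536-well plates, then fixed and DAPI-stained, with nuclei counted from automated high-throughput microscope images.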

As to `CC1(C)CCC(c2ccc(Cl)cc2)=C(CN2CCN(c3ccc(C(=O)NS(=O)(=O)c4ccc(N[C@H](CCN5CCOCC5)CSc5ccccc5)c(S(=O)(=O)C(F)(F)F)c4)cc3)CC2)C1` + O=C(O)C(=O)Nc1sc2c(c1C(=O)O)CCNC2 [TCS401] (first compound 2 µM, partner dose 8.33333 µM), the cell count with 501Mel was 102%; with A101D, 49.5%; with A2058, 102%; in the assay with A375 it was 87.2%.
Regarding `CC1(C)CCC(c2ccc(Cl)cc2)=C(CN2CCN(c3ccc(C(=O)NS(=O)(=O)c4ccc(N[C@H](CCN5CCOCC5)CSc5ccccc5)c(S(=O)(=O)C(F)(F)F)c4)cc3)CC2)C1` + O=C1NC(=O)/C(=C/c2ccc(-c3ccc(F)cc3O)o2)S1 [AS252424] (first compound 2 µM, partner dose 5 µM), the cell count in the assay with 501Mel amounted to 80.2%; with A101D it was 56.8%; in the assay with A2058, 93.9%; in the assay with A375, 67.1%.
`Cc1ccc(Nc2nccc(N(C)c3ccc4c(C)n(C)nc4c3)n2)cc1S(N)(=O)=O` [Pazopanib] + COc1ccc(COc2ccc(Cc3cnc(N)nc3N)cc2OC)cc1 [GW2580] (first compound 2 µM, partner dose 5 µM): the cell count with 501Mel worked out at 75.7%; with A101D, 73.4%; with A2058 it was 105%; in the assay on A375 it was 67.5%.
For `O=C(/C=C/c1cccnc1)NCCCCC1CCN(C(=O)c2ccccc2)CC1` + N#Cc1c(O)c2c(-c3ccc(-c4ccccc4O)cc3)csc2[nH]c1=O [A769662] (first compound 0.05 µM, partner dose 10 µM) the same measures were 71.3%, 68.6%, 97.3% and 151%.
On the same counts, the results for `O=C(/C=C/c1cccnc1)NCCCCC1CCN(C(=O)c2ccccc2)CC1` + COC(=O)c1sccc1S(=O)(=O)Nc1ccc(Nc2ccccc2)cc1OC [GSK0660] (first compound 0.05 µM, partner dose 5 µM) are 80.8%, 82.5%, 109% and 102%.
